According to paper PMC4336329 (PLoS ONE, 2015):
In all, about 310,000 compounds went through this assay and about 14,000 (4.5%) showed an effect of 50% or more. The effect is printed as a negative number. This is one part of the list.

target: human ether-à-go-go-related gene (hERG) potassium channel (human, UniProt Q12809); test: primary screen, population patch clamp on CHO cells stably expressing hERG
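Further: peak tail current of the secondary pulse compared with the same well before compound.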

human ether-à-go-go-related gene (hERG) potassium channel, sequence (Q12809 whole entry, looked up): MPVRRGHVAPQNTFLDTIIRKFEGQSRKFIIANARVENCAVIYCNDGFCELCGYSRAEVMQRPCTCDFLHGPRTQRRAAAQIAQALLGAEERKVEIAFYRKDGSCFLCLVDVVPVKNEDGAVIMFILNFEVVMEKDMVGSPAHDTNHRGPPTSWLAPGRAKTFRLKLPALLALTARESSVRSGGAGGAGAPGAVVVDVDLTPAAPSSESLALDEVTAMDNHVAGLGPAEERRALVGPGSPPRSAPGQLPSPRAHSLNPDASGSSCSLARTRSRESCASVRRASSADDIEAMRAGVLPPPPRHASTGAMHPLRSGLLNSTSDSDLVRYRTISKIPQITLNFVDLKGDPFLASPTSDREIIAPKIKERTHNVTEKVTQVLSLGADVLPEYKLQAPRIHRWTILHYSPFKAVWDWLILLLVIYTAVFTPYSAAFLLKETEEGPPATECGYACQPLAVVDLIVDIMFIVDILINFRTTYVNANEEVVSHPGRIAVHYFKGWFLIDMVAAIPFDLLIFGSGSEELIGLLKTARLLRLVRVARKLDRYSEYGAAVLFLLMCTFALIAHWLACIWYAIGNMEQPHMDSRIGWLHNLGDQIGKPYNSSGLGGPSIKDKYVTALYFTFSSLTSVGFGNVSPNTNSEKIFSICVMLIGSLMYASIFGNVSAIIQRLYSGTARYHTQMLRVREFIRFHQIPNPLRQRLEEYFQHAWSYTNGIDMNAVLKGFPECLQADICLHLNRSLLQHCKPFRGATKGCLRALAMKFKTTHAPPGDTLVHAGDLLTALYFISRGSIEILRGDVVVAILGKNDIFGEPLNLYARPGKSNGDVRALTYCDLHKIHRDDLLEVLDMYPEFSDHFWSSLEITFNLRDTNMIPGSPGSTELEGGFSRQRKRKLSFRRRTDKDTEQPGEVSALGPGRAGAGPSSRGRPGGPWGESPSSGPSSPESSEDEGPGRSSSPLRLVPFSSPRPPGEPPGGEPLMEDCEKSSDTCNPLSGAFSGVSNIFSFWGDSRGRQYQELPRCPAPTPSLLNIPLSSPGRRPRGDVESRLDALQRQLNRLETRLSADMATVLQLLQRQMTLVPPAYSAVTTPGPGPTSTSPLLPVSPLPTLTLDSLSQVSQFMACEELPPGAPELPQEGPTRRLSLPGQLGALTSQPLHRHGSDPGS

| Compound | hERG current change (%, negative = inhibition) at 10uM [%] |
| --- | --- |
| COc1cccc(NC(=O)c2cnn(-c3ccccc3)c2C)c1 | -4.54 |
| COc1ccc(Cc2nnc(NC(=O)c3cccs3)s2)cc1 | -3.76 |
| Nc1c(C(=O)Nc2cccc(F)c2)nnn1-c1cccc(C(F)(F)F)c1 | 10.1 |
| CC(C)CNC(C)C(=O)Nc1ccc(S(N)(=O)=O)cc1 (stereo not shown) | 34.4 |
| CC(=O)Nc1cccc(NC(=O)c2cc(-c3cccnc3)nc3ccc(Br)cc23)c1 | -12.2 |
| COc1ccccc1N(CC(=O)Nc1ccc(Cc2ccncc2)cc1)S(=O)(=O)c1ccccc1 | -1.61 |
| O=C(Cn1nc(-c2ccccc2)c2ccccc2c1=O)NN1CCOCC1 | 5.24 |
| CCOc1ccccc1NC(=O)c1sc2nc(C)nc(N3CCOCC3)c2c1C | -14.4 |
| COC(=O)NC1CCC(NC(=O)OC)CC1 (stereo not shown) | 12.9 |
| CC(=O)Nc1ccc2sccc2c1 | 13.9 |
| O=C(CN1CCc2ccccc2C1)Nc1ccc(OC(F)(F)F)cc1 | -6.92 |
| O=C(c1ccc(F)cc1)N1CCCC(c2ccccc2)C1 (stereo not shown) | 15.8 |
| CC(NC(=S)NNS(=O)(=O)c1cccc([N+](=O)[O-])c1)c1ccccc1 (stereo not shown) | 16.1 |
| CC(C)CN(C(=O)COC(=O)CNC(=O)c1ccccc1F)C1CCS(=O)(=O)C1 (stereo not shown) | 12.9 |
| CC1CCC(N2CCNCC2)CC1.Cl (stereo not shown) | 16.5 |
| Cc1nc(C(F)(F)F)c(C(=O)NC(=O)Nc2ccccc2)s1 | 4.57 |
| CC1CCCN(S(=O)(=O)c2ccc(NC(=O)C3CC(=O)N(c4ccccc4)C3)cc2)C1 (stereo not shown) | -7.32 |
| COCCn1ccc2c(OCC(=O)NCc3ccccc3)cccc2c1=O | -35.9 |
| CCOCC(=O)NCc1ccc2c(c1)cc(C)n2C | -14.8 |
| Cc1ccccc1-n1ncc(C(C)NS(=O)(=O)c2sccc2C)c1C (stereo not shown) | 3.82 |

| Compound | hERG current change (%, negative = inhibition) at 10uM [%] |
| --- | --- |
| CCOc1ccc(C(=O)NCC(=O)NC(C)c2ccc(-n3ccnc3)cc2)cc1OCC (stereo not shown) | -77.4 |
| Cc1nc2oc3ccc(Cl)cc3c(=O)c2cc1C(=O)O | 19 |
| CCN1CCN(C(=O)CSc2ccc(C)cc2)CC1 | 2.51 |
| CCCN1CCc2[nH]c(=S)[nH]c(=O)c2C1 | 5.71 |
| CC(C)NC(=O)NC(=O)COc1c(F)c(F)cc(F)c1F | 10.5 |
| COc1ccc(-n2c(SCC(=O)NCC3CCCO3)nc3n[nH]c(C)c3c2=N)cc1 (stereo not shown) | 9.55 |
| COc1ccc(CCNC(=O)CN(c2ccccc2OC)S(C)(=O)=O)cc1 | 2.74 |
| O=C1c2ccccc2NC(c2cccc(O)c2)N1c1ccccc1 (stereo not shown) | 11.6 |
| Cc1cccc(NC(=O)CSc2nc3[nH]ncc3c(=O)[nH]2)c1C | 22.3 |
| C=CCn1c(Cc2nc3ccccc3[nH]2)n[nH]c1=S | 16.4 |
| O=C(Nc1ccccc1F)C1CCCN(S(=O)(=O)c2cccc3cccnc23)C1 (stereo not shown) | 1.36 |
| Cc1ccccc1OCCC(=O)N(Cc1ccccc1)c1c(N)n(Cc2ccccc2)c(=O)[nH]c1=O | -7.3 |
| CC(C)C(=O)N=c1sc2cccc(F)c2n1C | -1.46 |
| Cc1ccc(-n2nnnc2SCC(=O)N2c3ccccc3NC(=O)C2(C)C)cc1 | -22.3 |
| COc1cc(OC)cc(C(=O)NC(C(=O)Nc2ccc3c(c2)CCC3)C(C)C)c1 (stereo not shown) | -1.96 |
| CC(=O)c1ccccc1NS(=O)(=O)c1ccccc1Cl | 12.7 |
| O=C(NC(=S)NNC(=O)c1cnccn1)c1ccc(Cl)cc1 | 13.6 |
| COc1ccc(S(=O)(=O)N2CCCCC2)cc1NC(=O)CSc1nnc(C2CC2)n1C | -23.6 |
| O=C(Oc1ccc(-c2nnco2)cc1)c1ccc(F)c(S(=O)(=O)N2CCOCC2)c1 | -3.26 |
| O=C(CSc1nccn1-c1ccccc1)Nc1ccc2c(c1)OCO2 | 0.552 |

| Compound | hERG current change (%, negative = inhibition) at 10uM [%] |
| --- | --- |
| CN(c1ccccc1)S(=O)(=O)c1ccc(Cl)nc1 | 10.8 |
| CCOC(=O)C1CCN(c2nc3cc(OC)ccc3cc2C#N)CC1 | -16 |
| O=C(CSc1nc2ccccc2c(=O)n1CC1CCCO1)Nc1ccccc1 (stereo not shown) | -14.1 |
| CC(=O)NCCOc1ccc2oc3ccccc3c2c1 | -8.21 |
| CC(Cc1cccs1)NC(=O)CCCn1nnnc1CN1CCOCC1 (stereo not shown) | 16 |
| CN(C)C=NC(=O)c1cc(C(=O)c2ccc(Cl)cc2Cl)c[nH]1 | 7.03 |
| CCCc1cc(=O)[nH]c(SCC(=O)OCc2ccccc2)n1 | 4.21 |
| Cc1nn(-c2ccccc2)nc1-c1nnc(-c2ccc(C(F)(F)F)cc2)o1 | 18.8 |
| CCN(CC(=O)NCc1cccs1)C(=O)c1cccc(S(=O)(=O)Nc2ccccc2Cl)c1 | -15.7 |
| CCCSc1nc(=O)n2cccc(C)c2n1 | -5.47 |
| CCOCc1nc(N)[nH]c(=O)c1Cc1ccc(OC(C)C)cc1 | 8.29 |
| COc1ccc(NC(=O)CS(=O)CC(=O)Nc2ccc(OC)c(OC)c2)cc1 (stereo not shown) | 10.9 |
| N/C(=N\OC(=O)c1cnn(-c2ccccc2)c1C(F)(F)F)c1cc(C(F)(F)F)cc(C(F)(F)F)c1 | 14.6 |
| C/C(=C/C(=O)O)C(=O)Nc1cccc(C(F)(F)F)c1 | 3.16 |
| O=c1c2cc(NC(=S)NCc3ccccn3)ccc2nc2n1CCCCC2 | -6.42 |
| O=C(N/N=C/c1cc([N+](=O)[O-])ccc1O)c1ccncc1 | 1.76 |
| COc1cc(C(=S)N2CCOCC2)cc(OC)c1OS(=O)(=O)c1ccc(NC(C)=O)cc1 | -8.58 |
| CC(C)Cn1c(N)c(C(=O)COC(=O)Cc2cccs2)c(=O)n(C)c1=O | -51.7 |
